Measured values as given in patent publication US11618753B2 (priority 2018, dated 2023).

Tested on: MLKL phosphorylation, HT29-L23 human colorectal adenocarcinoma cells
Assay: cells
Settings: read-out: pMLKL HCS Cell Assay (IC50, uM)

First: COc1ncc(-c2cc(CN3CCC(F)(F)CC3)c3c(N)ncnn23)cc1C(=O)N[C@@H]1CN(C(=O)c2ccncc2F)C[C@@H]1F [Example 1250, 5-{4-amino-5-[(4,4-difluoropiperidin-1-yl)methyl]pyrrolo[2,1-f][1,2,4]triazin-7-yl}-N-[(3R,4S)-4-fluoro-1-(3-fluoropyridine-4-carbonyl)pyrrolidin-3-yl]-2-methoxypyridine-3-carboxamide]
Second: COc1ncc(-c2cc(CN3CCC(F)(F)CC3)c3c(N)ncnn23)cc1C(=O)N[C@@H]1CN(C(=O)c2cnccc2C(F)(F)F)C[C@@H]1F [Example 1255, 5-{4-amino-5-[(4,4-difluoropiperidin-1-yl)methyl]pyrrolo[2,1-f][1,2,4]triazin-7-yl}-N-[(3R,4S)-4-fluoro-1-[4-(trifluoromethyl)pyridine-3-carbonyl]pyrrolidin-3-yl]-2-methoxypyridine-3-carboxamide]
The IC50 of the first is 3.1-fold lower: 0.0015 µM for the first, 0.0047 µM for the second. The first is the more potent here.

Going from COc1ncc(-c2cc(CN3CCC(F)(F)CC3)c3c(N)ncnn23)cc1C(=O)N[C@@H]1CN(C(=O)c2c(F)cc(F)cc2F)C[C@@H]1F [Example 1251, 5-{4-amino-5-[(4,4-difluoropiperidin-1-yl)methyl]pyrrolo[2,1-f][1,2,4]triazin-7-yl}-N-[(3R,4S)-4-fluoro-1-(2,4,6-trifluorobenzoyl)pyrrolidin-3-yl]-2-methoxypyridine-3-carboxamide] to COc1ncc(-c2cc(CN3CCC(F)(F)CC3)c3c(N)ncnn23)cc1C(=O)N[C@@H]1CN(C(=O)c2ccc(F)cc2Cl)C[C@@H]1F [Example 1253, 5-{4-amino-5-[(4,4-difluoropiperidin-1-yl)methyl]pyrrolo[2,1-f][1,2,4]triazin-7-yl}-N-[(3R,4S)-1-(2-chloro-4-fluorobenzoyl)-4-fluoropyrrolidin-3-yl]-2-methoxypyridine-3-carboxamide], the IC50 rises from 0.0009 µM to 0.0015 µM (1.7-fold).

COc1ncc(-c2cc(CN3CCC(F)(F)CC3)c3c(N)ncnn23)cc1C(=O)N[C@@H]1CN(C(=O)c2ccccn2)C[C@@H]1F [Example 1254, 5-{4-amino-5-[(4,4-difluoropiperidin-1-yl)methyl]pyrrolo[2,1-f][1,2,4]triazin-7-yl}-N-[(3R,4S)-4-fluoro-1-(pyridine-2-carbonyl)pyrrolidin-3-yl]-2-methoxypyridine-3-carboxamide] and COc1ncc(-c2cc(CN3CCC(F)(F)CC3)c3c(N)ncnn23)cc1C(=O)N[C@@H]1CN(C(=O)c2cscn2)C[C@@H]1F [Example 1256, 5-{4-amino-5-[(4,4-difluoropiperidin-1-yl)methyl]pyrrolo[2,1-f][1,2,4]triazin-7-yl}-N-[(3R,4S)-4-fluoro-1-(1,3-thiazole-4-carbonyl)pyrrolidin-3-yl]-2-methoxypyridine-3-carboxamide] are within 1.5-fold of each other in IC50: 0.0015 µM for the first, 0.0021 µM for the second.

First: COc1ncc(-c2cc(CN3CCC(F)(F)CC3)c3c(N)ncnn23)cc1C(=O)N[C@@H]1CN(C(=O)c2ccc(Cl)cn2)C[C@@H]1F [Example 1257, 5-{4-amino-5-[(4,4-difluoropiperidin-1-yl)methyl]pyrrolo[2,1-f][1,2,4]triazin-7-yl}-N-[(3R,4S)-1-(5-chloropyridine-2-carbonyl)-4-fluoropyrrolidin-3-yl]-2-methoxypyridine-3-carboxamide]
Second: COc1ncc(-c2cc(CN3CCC(F)(F)CC3)c3c(N)ncnn23)cc1C(=O)N[C@@H]1CN(C(=O)CC(C)C(F)(F)F)C[C@@H]1F (stereo partly drawn) [Example 1258, 5-{4-amino-5-[(4,4-difluoropiperidin-1-yl)methyl]pyrrolo[2,1-f][1,2,4]triazin-7-yl}-N-[(3R,4S)-4-fluoro-1-(4,4,4-trifluoro-3-methylbutanoyl)pyrrolidin-3-yl]-2-methoxypyridine-3-carboxamide]
The IC50 of the first is 110-fold higher: 0.056 µM for the first, 0.00053 µM for the second.
